# Results published in the supplement of paper PMC11417369.
# ± gives the standard deviation of the averaged measurements. This is one part of the list.
# Test system: PfAP2-EXP AP2 domain (GST-tagged)
# Experiment: gcPBM binding intensity (ln(normalized median fluorescence intensity)); higher = stronger DNA binding
# In short: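 Plasmodium falciparum DNA-binding domains carrying a GST tag were expressed in E. coli and applied for 1 h, at about 25 μg on average, to an Agilent 4 × 180k array. The array held primer-extended double-stranded 36-bp intergenic genomic probes together with negative controls, and binding took place in 1× PBS with 1% milk, 0.2 mg/ml BSA, 0.5% salmon testes DNA and 0.03% Triton X-100. An Alexa488 anti-GST antibody detected bound protein, and the array was scanned at 488 nm. Binding intensity is taken as the highest Masliner-normalised natural-log median intensity across replicate spots of either probe orientation.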
row,Sequence,gcPBM binding intensity (ln)
1,TTTTTGTAATATTATGATGTCATATATATATATATA [XGTACX_negctrl_site618],10.2 ± 0.54
2,AAATTGGGTACAAATACACACACATATATATATTAA [CACACA_site8745],8.62 ± 0.48
3,TTTATACAATAAAATGCATGCAAGTATCTATTTTAT [TGCATGCA_site210],9.85 ± 0.23
4,ATAGATCCTAATGTTGTGCACATGTAAATTAATATA,8.91 ± 0.21
5,GCACAACATATATTATCACACACATATATATATATA [CACACA_site8619],10.3 ± 0.18
6,AAAAAACAAAAAAAAAAAAAAATAATACAATATAAT [CACACA_negctrl_site1630],8.31 ± 0.5
7,ACCATATAAATAAACACACACACACCGATATATATA [CACACA_site5310],8.8 ± 0.41
8,TATAATGAACATATGTGTACATATATTTTTTAAATT [XGTACX_site8736],8.12 ± 0.27
9,CAAAAGAATATATGTAGTACATGTTGTAGATAATAT [XGTACX_site1044],9.02 ± 0.38
10,CGCGAAGTAGCATTCACACACAGCAAAATATAAATA [CACACA_site7608],8.71 ± 0.64
11,ATATATATATATAGTGCACACTTAAGAATATAAAGA [CACACA_site4771],10.2 ± 0.13
12,AACTATTACTTTCTTTCACACATTTTTTTTTTTTTT [CACACA_site5355],8.54 ± 0.32
13,TGTTATATAATTTAGCGTACAGGTTATAGGACGGAT [XGTACX_site8823],9.05 ± 0.35
14,AACTCTTAGAATGACGGTACAGTATAATAGGTGAAC [XGTACX_site7163],8.81 ± 0.5
15,ATATAATGAATTATTAGAAAATAAAATGAATAAAGT [CACACA_negctrl_site690],8.88 ± 0.35
16,TTTATTTATTTATGTGGTACTTCAAAAATATATACT [XGTACX_site355],8.6 ± 0.45
17,GGATACGCTTTTGTACCACTCCCCCTTTTGGGAATA [CACACA_negctrl_site1363],8.88 ± 0.33
18,CAAACCCACGGACACACACACACAAAAATGATTAAA [CACACA_site5365],8.46 ± 0.5
19,ATCATATAAACATATTGTACTTAAATACATAATATT [XGTACX_site3800],8.46 ± 0.53
20,AGCACACAAAAAAAAAAAAAAAAAAAAAAAGGAATG [GTGCAC_negctrl_site73],8.23 ± 0.59
21,TATGTATTCATATGTTGTACATTATATATAATAAGT [XGTACX_site6589],8.67 ± 0.24
22,AAATCAGAACCTATTTGTACATATACAAAAATGATT [XGTACX_site2421],8.38 ± 0.35

row,Sequence,gcPBM binding intensity (ln)
1,CATATGTAGGGAACAATATAATATGCTTTGAATATG [GTGCAC_negctrl_site524],8.68 ± 0.45
2,TTTTAATTAGCTAGACGTACAATAATATACAAATAT [XGTACX_site6068],8.56 ± 0.41
3,ATTTTTTTAAGATAAGAAAAATAAAGTGTGGATATT [XGTACX_negctrl_site476],8.63 ± 0.43
4,TTTATGCATAGAGAAACATGCAAGAAAGATGCAAAA [TGCATGCA_site726],9.03 ± 0.26
5,GCTTGTACATTTTTAAAAAATGACTTCGAAAGGAAT [CACACA_negctrl_site453],8.88 ± 0.47
6,TTCCTTATTATTATTTTACACACGTCCTAATAAGAG [CACACA_site8364],8.83 ± 0.59
7,ATTATGTATACATAAACACACATATTTATAAAAAAA [CACACA_site6261],8.59 ± 0.42
8,ATATATTTATATATATGTACATATTATGTTAAGAAA [XGTACX_site1111],8.59 ± 0.44
9,TTAATATGAAATAAATGTACATAATACATAATAAAA [XGTACX_site6194],8.57 ± 0.4
10,AATTGAAAAATATATAAGAAGAAATATATATATGTT [GTGCAC_negctrl_site97],8.55 ± 0.47
11,GTTTTTAGTATTTTTTGTACTTAATACATAGCCTTA [XGTACX_site7318],8.54 ± 0.32
12,AACACGCGCGGACACACACACACACCCACATATATA [CACACA_site5252],8.72 ± 0.55
13,TATTAACAAATTTATGTGCACTGAGGACAAATATAT,9.17 ± 0.18
14,ATTTATATCTCCATATGTTCAAAACTTTCACAAATA [TGCATGCA_negctrl_site108],8.63 ± 0.41
15,AATATAAATTAATTTACACACTAAAAAATATATATA [CACACA_site3778],8.52 ± 0.34
16,AAAATAAGTAATTACTAATATATAAATTAATAATTA [CACACA_negctrl_site1602],8.22 ± 0.27
17,AAAGAAAAAAAAATTACACACATATATTATATATAT [CACACA_site3211],8.62 ± 0.12
18,TTTATTAATAAACACACACACACACCCAAAATAAAA [CACACA_site7966],8.96 ± 0.49
19,AAATAGAAGAAATATGCACACATACATTGAAATGTT [CACACA_site7996],8.37 ± 0.51
20,TTTTCTTCATAAATGCTGCACTGGTTTAAGCATGAT,8.59 ± 0.4
21,CCTTAATATTTTTGAAGTACATATTTATTTTACAAG [XGTACX_site3049],8.31 ± 0.33
22,TTAGATTTAAATATCATACACACTTTATATATAATA [CACACA_site959],8.38 ± 0.47

row,Sequence,gcPBM binding intensity (ln)
1,CTTGAAAAAATAAAAACACACAATGTGTTTTTGAAT [CACACA_site3283],8.25 ± 0.35
2,ATAAAAATAAACATACGTACTTACACGAATATACAT [XGTACX_site5989],8.66 ± 0.37
3,ATATTACTATATTATTGTACGTTAAAAAAAAAAAAT [XGTACX_site8734],8.51 ± 0.39
4,TTTCTAAATAATTATAATGAATCTGCAAACAAGCAT [XGTACX_negctrl_site391],8.15 ± 0.23
5,AATAAATAAATAAATAAATATATATATATATATATA [GTGCAC_negctrl_site224],10 ± 0.26
6,TTATATTAAAAAAGATGTACGTTTAGGAAAAATATA [XGTACX_site7456],8.63 ± 0.38
7,TGTATATATATCTCAGTGCATTGCAAATTAAAAATT [GTGCAC_site9646],8.65 ± 0.41
8,ATACTCACGTGACACACACACAATATAAATAAATAT [CACACA_site7862],8.65 ± 0.46
9,TATAATAATCTAATCTGTAGTTTTTTTTTTTTTTTT [CACACA_negctrl_site1206],8.09 ± 0.15
10,GGCTTTTTTTAATATGCACACATATATTTTATATAT [CACACA_site8647],8.83 ± 0.028
11,AAAAAAAAACAGAAAACACACAAATTATCTTATAAT [CACACA_site4326],8.45 ± 0.52
12,CTTTTATTCAAAAGATGTACTTAAATATATATCTAA [XGTACX_site4326],8.18 ± 0.22
13,TGCAGTCTGGAGAAACGTACACAGTATCTGGTAACA [XGTACX_site2014],8.62 ± 0.23
14,ATGTGTATAATTAAATGTACATATATATATATATAT [XGTACX_site829],10.2 ± 0.2
15,ATATATATCGGACACACACACATGTTTTAAAACTAT [CACACA_site4218],8.96 ± 0.38
16,CATATAAATATTTGTGCACACAATTATTAATAATTA [CACACA_site3884],8.815 ± 0.078
17,AAAAAGTTATTATGAACACACATTTATTATAGTCAT [CACACA_site6838],8.28 ± 0.31
18,ATTTGAAATTGGTAGACACACAATAAAATATCAAAA [CACACA_site447],8.46 ± 0.35
19,TTAAACTTGAGACACACACACACACGGATATAAAAA [CACACA_site6495],8.96 ± 0.52
20,TAACATAAATTTAGGAGTACACTTTTTATACATACA [XGTACX_site4066],8.54 ± 0.22
21,CATTATTATTAACATACACACGTGTTATATACCCCC [CACACA_site9365],10.2 ± 0.41
22,TATATATTTATTTATAGTACACTATTTATGAAAACC [XGTACX_site3062],8.54 ± 0.29

row,Sequence,gcPBM binding intensity (ln)
1,AAATTCACAATGTTTGGTACACATAAAAAAAAAAGA [XGTACX_site7109],8.73 ± 0.4
2,AACATACGACAATACGCACACATATCTGTACATATT [CACACA_site5115],8.73 ± 0.38
3,TTTATATATTTTGTCGTGCACATTTGGAAAATTACA [GTGCAC_site9776],9.21 ± 0.23
4,TATTATTATTTTATGGTGCAAAAAAAAAAAAAAAAA,8.66 ± 0.23
5,AAAAATTTTTTTTTTTTTTTAAATAATAAAAATGAA [CACACA_negctrl_site1435],7.87 ± 0.42
6,ATATTATAAAATAAAAGTACACAATTATATATATAT [XGTACX_site8812],9.46 ± 0.057
7,AATAAAATGGAATACGGTACACATAATCCTAAAATG [XGTACX_site926],8.7 ± 0.44
8,TATTTTTAAAATTAAATGAATAAATAAATAAATATA [XGTACX_negctrl_site553],8.17 ± 0.28
9,TATCACTATAGACAAGCATGCATATGTACTAATATC [TGCATGCA_site1020],9.52 ± 0.6
10,TTTATATTTATTGTTGTGCACAGAACCATATTCGTT,9.11 ± 0.092
11,AAACAATAAAAGATTACACACATATATAGCATCTAT [CACACA_site5012],8.39 ± 0.36
12,TTTCATTTGTCGTTATGTACTTATTAAATATTATTA [XGTACX_site7709],8.88 ± 0.36
13,TAAAGTAAAGACATACTTATTTTCCATCCACTTCTT [CACACA_negctrl_site1288],8.87 ± 0.39
14,CACATACAGACATACACACATACACATATACGCATA [CACACA_site1745],8.71 ± 0.46
15,ATATATATTTTTATAACACACAATGAAGTACATTAC [CACACA_site8270],8.65 ± 0.092
16,ATATAATATGGTATTACACACTGTTAAAAGTATGGC [CACACA_site5190],8.64 ± 0.35
17,TCTGTATATTTCGCGCGTACGAACAAATTGATAATT [XGTACX_site7965],8.94 ± 0.41
18,ATATATATAAAATGTTGTACATATATATAAATAATA [XGTACX_site1661],8.27 ± 0.31
19,CTAAAATACAGACACACACACACATATATATATATA [CACACA_site4150],10.1 ± 0.24
20,GGGTTTTTAAAATGTAGTACATATGTAAACATCAAA [XGTACX_site1262],8.78 ± 0.4
21,ATATGCTTATATTATATATATAAGTCTATATATTTT [XGTACX_negctrl_site349],8.21 ± 0.48
22,TTAAAATAGGGCGAAGAAATTTTCTGTAAACATTTG [CACACA_negctrl_site1010],8.54 ± 0.38
